# From PMC4336329 (PLoS ONE, 2015)
# Out of some 310,000 compounds screened, about 14,000 (4.5%) showed an effect of 50% or more. Effects have a minus sign here. The list shows a part of the results.
# Biological target: human ether-à-go-go-related gene (hERG) potassium channel (human, UniProt Q12809)
# Assay: primary screen, population patch clamp on CHO cells stably expressing hERG
# 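Note: peak tail current of the secondary pulse compared with the same well before compound.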
# human ether-à-go-go-related gene (hERG) potassium channel, sequence (Q12809 whole entry, looked up): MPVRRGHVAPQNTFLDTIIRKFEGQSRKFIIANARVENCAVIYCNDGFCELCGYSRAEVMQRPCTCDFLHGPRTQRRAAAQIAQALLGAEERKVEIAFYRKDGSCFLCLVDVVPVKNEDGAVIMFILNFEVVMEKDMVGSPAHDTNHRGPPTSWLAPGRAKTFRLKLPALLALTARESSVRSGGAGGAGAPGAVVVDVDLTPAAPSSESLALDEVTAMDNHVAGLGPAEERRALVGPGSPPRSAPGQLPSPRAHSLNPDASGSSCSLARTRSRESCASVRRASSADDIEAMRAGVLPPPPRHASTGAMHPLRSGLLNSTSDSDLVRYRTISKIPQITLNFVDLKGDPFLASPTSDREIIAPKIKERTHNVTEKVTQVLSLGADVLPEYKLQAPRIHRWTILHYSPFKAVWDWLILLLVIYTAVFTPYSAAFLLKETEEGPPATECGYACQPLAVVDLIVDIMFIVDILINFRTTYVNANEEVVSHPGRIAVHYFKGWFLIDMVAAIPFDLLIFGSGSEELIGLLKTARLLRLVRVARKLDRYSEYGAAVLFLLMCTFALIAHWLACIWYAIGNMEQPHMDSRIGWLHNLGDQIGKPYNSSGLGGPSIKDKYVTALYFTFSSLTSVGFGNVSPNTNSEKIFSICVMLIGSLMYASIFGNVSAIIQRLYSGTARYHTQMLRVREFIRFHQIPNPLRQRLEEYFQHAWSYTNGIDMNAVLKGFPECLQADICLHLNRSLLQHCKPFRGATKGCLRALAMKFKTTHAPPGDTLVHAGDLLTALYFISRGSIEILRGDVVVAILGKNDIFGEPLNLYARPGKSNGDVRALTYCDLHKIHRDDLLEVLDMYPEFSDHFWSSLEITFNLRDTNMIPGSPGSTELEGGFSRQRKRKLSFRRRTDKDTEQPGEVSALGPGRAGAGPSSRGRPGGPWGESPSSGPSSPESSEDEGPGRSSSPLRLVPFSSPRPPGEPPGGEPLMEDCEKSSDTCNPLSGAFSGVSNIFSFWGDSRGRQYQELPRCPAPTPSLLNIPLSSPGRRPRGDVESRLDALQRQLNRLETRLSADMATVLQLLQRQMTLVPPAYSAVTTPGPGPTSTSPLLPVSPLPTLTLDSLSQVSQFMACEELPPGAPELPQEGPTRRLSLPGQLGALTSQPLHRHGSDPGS
row,SMILES,"hERG current change (%, negative = inhibition) at 10uM [%]"
1,COc1cccc(-c2nc(CS(=O)CC(=O)NC3CCCC3)c(C)o2)c1 (centres unmarked),1.08
2,Cc1cccc(-c2nnc(NC(=O)c3ccc(Cl)cc3)o2)c1,1.54
3,CCOc1ccc(/C(O)=C2/C(=O)C(=O)N(c3ncccn3)C2c2ccccc2)cc1 (centres unmarked),-4.75
4,O=C(O)CC/C(=N/NC(=O)c1cccs1)c1ccccc1,6.16
5,CCc1ccc(NC(=O)C(NS(=O)(=O)c2cccc3nsnc23)c2ccccc2)cc1 (centres unmarked),-28.6
6,O=C1NN(c2ccccc2)C(=O)/C1=C\c1cccn1-c1ccc(Cl)c([N+](=O)[O-])c1,4.64
7,Cc1ccc(-n2c(C)cc(/C=C3/C(=O)NC(=O)N(C)C3=O)c2C)cc1,15.2
8,O=S(=O)(c1ccc(Cl)cc1)c1cnc(-c2cccnc2)nc1-c1ccccc1,0.222
9,O=C(Nc1nccs1)C1(c2ccc(Cl)cc2)CC1,-12.7
10,Cc1cc(NC(=O)CSc2nccn2C)n(-c2ccccc2)n1,5.86
11,CN(C)S(=O)(=O)c1ccc(C(=O)NCC2(N3CCCCC3)CCCCC2)cc1,-1.46
12,O=C1c2ccccc2C(=O)N1CCCON1C(=O)c2ccccc2C1=O,-15.6
13,CC(C)CC(=O)NC1(C(F)(F)F)C(=O)Nc2c1c(=O)n(C)c(=O)n2C (centres unmarked),10.5
14,Cc1cccc(CN2C(=O)c3ccccc3Sc3ccc(C(=O)NCCCN4CCOCC4)cc32)c1,-9.29
15,Cc1nc(NC(=O)c2ccc(F)cc2)nc2cc3c(cc12)OCO3,9.93
16,Cc1cc(C(=O)N2CCN(c3ccccn3)CC2)c(C)o1,-7.39
17,O=[N+]([O-])c1cc(S(=O)(=O)c2ccc([O-])c([N+](=O)[O-])c2)ccc1[O-].[Na+],17.4
18,Cc1nc(-c2noc(-c3ccccc3Cl)n2)c(C(F)(F)F)o1,21.2
19,O=C(c1cccc([N+](=O)[O-])c1)N1CCCC(C(=O)N2CCc3ccccc3C2)C1 (centres unmarked),-31
20,CC(C)C(NC(=O)CCNC(=O)c1ccccc1Cl)c1nc2ccccc2[nH]1 (centres unmarked),-9.36
21,Cc1cccc(-c2nn(-c3ccccc3)cc2C(=O)Nc2cccc(S(=O)(=O)NC3=NCCC3)c2)c1,3.74
22,O=C(CSc1ccc2ccccc2c1)Nn1cnnc1,16.7

row,SMILES,"hERG current change (%, negative = inhibition) at 10uM [%]"
1,CC1CCCC(C)N1NC(=O)c1cccc(S(=O)(=O)N2CCc3ccccc32)c1 (centres unmarked),-2.22
2,CCCC(=O)NC(=S)Nc1ccccc1C(F)(F)F,13.2
3,O=C1NC(=O)C(=Cc2ccc3c(c2)OCO3)C(=O)N1,15.3
4,C/C(=N\NC(=O)c1ccncc1)c1ccc(N2CCOCC2)cc1,-4.49
5,CCC[N+](CC#CCO)(CC#Cc1ccccc1)CCC.[Br-],-7.98
6,O=C(NCC1CCOCC1)c1cc(COc2ccc(F)cc2F)on1,-11.9
7,O=C(NCc1ccccc1)N1CCC(n2cnc3cc(F)ccc32)CC1,-64.3
8,Cc1noc(C)c1S(=O)(=O)N1CCN(c2ccccc2)CC1,-5.33
9,O=C(COC(=O)c1ccccc1F)Nc1cc(S(=O)(=O)N2CCOCC2)ccc1N1CCCC1,-13.5
10,O=C(Nc1ccccc1)C1CCCN1S(=O)(=O)c1ccc(Br)cc1 (centres unmarked),22.8
11,N#C/C(C(=O)NCc1ccccc1)=C1/N=C(NC(=O)c2ccco2)c2ccccc21,10.3
12,CS(=O)(=O)N1CCC(C(=O)NCc2ccc(F)cc2Cl)CC1,-3.78
13,O=C(CSc1ccc(-c2ccc(F)cc2)nn1)NCC1CCCO1 (centres unmarked),-8.07
14,COc1cc(C(=O)Nc2ccc3c(c2)C(=O)c2ccccc2C3=O)cc(OC)c1OC,-4.84
15,COc1ccc(C2NC(=O)NC(C)=C2C(=O)OC2CCC(C)CC2)cc1 (centres unmarked),11.9
16,O=C(c1ccco1)N1N=C2CCCCCC2C1(O)C(F)(F)F (centres unmarked),5.03
17,Cc1ccc(Nc2nnc(SCC(=O)Nc3cccc(S(=O)(=O)NC4=NCCCCC4)c3)s2)c(C)c1,-8.71
18,O=C(N/N=C/c1cc2ccccc2nc1Cl)c1ccncc1,1.94
19,CCOc1ccc2[nH]c3c(N4CCN(C(=O)c5ccco5)CC4)ncnc3c2c1,-58.4
20,CC1Cc2cc(C(=O)O)ccc2O1 (centres unmarked),-8.49
21,CCOc1cccc(C(=O)NC(=S)Nc2cccc(C)c2)c1,6.87
22,COc1ccc(C(=O)Nc2cc3c(cc2N2CCOCC2)n(C)c(=O)n3C)cc1OC,19.1

row,SMILES,"hERG current change (%, negative = inhibition) at 10uM [%]"
1,Cc1ccc(/C=N/Nc2cc(C)nc(NCc3ccccc3)n2)cc1,-6.03
2,N/C(=N\OC(=O)C1CCCCC1)c1cccc([N+](=O)[O-])c1,19.1
3,CCOC(=O)CSc1nc(C)c(Oc2ccc(Cl)cc2Cl)c(=O)[nH]1,9.96
4,CC(=O)c1ccc(OCCCC(=O)Nc2ccc(C)c(S(=O)(=O)N(C)C)c2)cc1,-6.59
5,CNc1ccc(C(=O)OCC(=O)Nc2ccnn2C(C)C)cc1[N+](=O)[O-],-1.37
6,CC(C)(C)C(=O)N(Cc1ccccc1)c1ccccn1,6.01
7,Cn1c(=O)cc(OCCCC(=O)N2CCN(c3ccccc3)CC2)c2ccccc21,-47.3
8,Cc1ccc(NC(=S)N(CCCN2CCOCC2)Cc2cccs2)c(C)c1,-11.7
9,COC(=O)c1ccc(NC(=O)CSc2nc3ncccc3[nH]2)cc1,2.16
10,Cc1ccc(NC(=O)CSc2nnc(Cn3c(=O)sc4ccccc43)n2C)cc1Cl,-2.61
11,COc1ccccc1NC(=O)N1CCn2c(nc3ccccc32)C1,-17.4
12,COC(=O)C1=C(c2ccc(F)cc2F)C[C@@H]2CC[C@H]1N2C(=O)N1CCCC1,12.5
13,N#C/C(=C\c1ccc(O)c(O)c1)C(=O)N1CCCC1,19.7
14,CC(=O)c1ccc(NC(=O)C2CCCN2S(=O)(=O)c2cccs2)cc1 (centres unmarked),-1.36
15,O=C(NCc1cccs1)c1noc2c1CCCCC2,-5.56
16,CC1CC(C)CN(S(=O)(=O)c2cc3c4c(c2)C(C)C(=O)N4CCC3)C1 (centres unmarked),9.93
17,O=C(N/N=C/c1c(O)ccc2ccccc12)Nc1ccccc1,16.3
18,C[C@]12CCC[C@H](O1)[C@H]([C@@H](O)c1ccccc1)O2,19.3
19,N#Cc1cnc(NCc2ccc(Cl)cc2Cl)nc1,2.88
20,COc1ccccc1N(CC(=O)NCCc1ccccc1)S(C)(=O)=O,21.2
21,COc1ccccc1N1CCN(C(=O)CN(C)S(=O)(=O)c2cc(C)ccc2OC)CC1,-7.23
22,O=C1N(Cc2ccc(F)cc2Cl)c2ccccc2C12OCCCO2,-5.22

row,SMILES,"hERG current change (%, negative = inhibition) at 10uM [%]"
1,c1ccc(N2CCN(c3nnnn3-c3ccccc3)CC2)cc1,-11.2
2,Cc1nc(NCc2ccc3c(c2)OCO3)c2nnn(Cc3ccccc3)c2n1,-13.9
3,CCOC(=O)c1cc(NC(=O)OC)c(C)nc1C,1.06
4,CC1CCN(S(=O)(=O)c2cccc(C(=O)Nc3ccccc3)c2)CC1,-9.3
5,NC(=O)C1CCN(c2ccc([N+](=O)[O-])cc2Cl)CC1,14.8
6,COc1ccc(C2=NN3C(C2)c2ccccc2OC32C(=O)N(C)c3ccccc32)cc1 (centres unmarked),-1.88
7,CNC(=S)NNC(=O)c1ccc2c(c1)OCO2,10.1
8,O=C(Nc1ccc(N2C(=O)C3C4C=CC(C4)C3C2=O)cc1Cl)c1cccs1 (centres unmarked),11.5
9,CCOCCCNCC(=O)Nc1ccccc1N1CCOCC1.O=C(O)C(=O)O,-3.71
10,O=C(Nc1ccc(-c2n[nH]c(=S)o2)cc1)c1ccccc1Br,20.6
11,Cn1nccc1C(=O)N1CCCC(N2CCN(Cc3ccc4c(c3)OCO4)CC2)C1 (centres unmarked),15.7
12,COc1ccc(CCN2CC(C(=O)NCCN3CCNC3=O)CCC2=O)cc1 (centres unmarked),6.77
13,c1ccc(N2CCN(Cc3nnnn3C3CCCCC3)CC2)cc1,15.9
14,CC(C)(C)OC(=O)N1CC(O)CC1C(=O)OCC(=O)c1ccccc1 (centres unmarked),5.86
15,COc1ccc(CCN2C(=O)CC(NCCc3ccc(S(N)(=O)=O)cc3)C2=O)cc1OC (centres unmarked),13.7
16,Cc1ccc(S(=O)(=O)N2[C@@H](c3ccc(Cl)cc3)C(C(=O)O)=CC[C@H]2c2cccc(C)c2)cc1,2.46
17,O=C(Cc1ccc(-n2cccc2)cc1)NCc1cccs1,1.83
18,O=C(NCCCn1ccnc1)/C(=C\c1cccs1)NC(=O)c1ccccc1,-69
19,CC(=O)Oc1ccccc1C1OC(=O)c2ccccc2N1C(C)=O (centres unmarked),0.0531
20,C/C(=N\NC(=S)NC1CCCCC1)c1ccc(O)cc1,-29.4
